Data: the supplement of paper PMC3334620
In all, about 33,000 sequences were measured (“E-score (-0.5 to 0.5)”: median about -0.041, highest 2% from about 0.37 on). Some of the results follow.

Molecular target: T1, Ecm22 (UniProt Q05958)
T1 sequence: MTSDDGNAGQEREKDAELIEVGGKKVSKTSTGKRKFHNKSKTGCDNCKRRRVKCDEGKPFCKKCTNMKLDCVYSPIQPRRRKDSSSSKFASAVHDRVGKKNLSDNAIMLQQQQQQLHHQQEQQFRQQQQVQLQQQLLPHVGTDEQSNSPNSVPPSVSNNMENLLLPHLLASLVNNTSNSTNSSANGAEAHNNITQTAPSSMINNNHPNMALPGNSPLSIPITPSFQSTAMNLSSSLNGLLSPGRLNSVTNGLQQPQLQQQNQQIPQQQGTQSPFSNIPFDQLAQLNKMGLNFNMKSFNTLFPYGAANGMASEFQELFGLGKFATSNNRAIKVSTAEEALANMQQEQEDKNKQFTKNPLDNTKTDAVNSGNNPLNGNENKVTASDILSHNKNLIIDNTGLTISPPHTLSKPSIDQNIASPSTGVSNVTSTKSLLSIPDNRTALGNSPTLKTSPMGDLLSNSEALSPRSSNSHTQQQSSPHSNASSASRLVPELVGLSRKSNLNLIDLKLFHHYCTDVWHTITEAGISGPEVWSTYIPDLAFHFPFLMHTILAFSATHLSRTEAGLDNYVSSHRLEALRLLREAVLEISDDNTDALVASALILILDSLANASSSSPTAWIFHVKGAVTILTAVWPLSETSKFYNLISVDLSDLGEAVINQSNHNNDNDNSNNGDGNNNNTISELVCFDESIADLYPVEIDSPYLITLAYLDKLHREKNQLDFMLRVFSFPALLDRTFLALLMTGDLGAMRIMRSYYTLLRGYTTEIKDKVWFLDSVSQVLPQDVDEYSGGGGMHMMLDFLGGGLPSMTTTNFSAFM
Assay: PBM E-score (8-mer binding enrichment) (E-score (-0.5 to 0.5)); higher = stronger / more preferred TF binding; most listed sequences are background and not binding sites
Conditions: protein concentration: 200 nM; construct: GST-full length
Procedure: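 Universal 'all 10-mer' protein binding microarrays (Agilent AMADID 015681) probed with GST-tagged S. cerevisiae TFs (full-length or DBD) made by in vitro transcription/translation (PURExpress), about 100-200 nM. Bound TF was detected with fluorescent anti-GST. Each ungapped 8-mer (which stands for itself and its reverse complement) is scored by the PBM enrichment score (E-score), a modified Wilcoxon-Mann-Whitney statistic from -0.5 to +0.5, computed with the Universal PBM Analysis Suite. Scale: above 0.35 generally sequence-specific binding.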

Compared with CGCTCAAC, ACATTCGA is lower in “PBM E-score” value: 0.159 for the first, 0.0496 for the second.

First: ATAATAAT
Second: AGCAGGAT
The “PBM E-score” value of the first is higher: 0.067 for the first, -0.163 for the second.

First: ACCCCCGC
Second: GAACAGAC
The “PBM E-score” value of the first is lower: -0.191 for the first, -0.0383 for the second.

Going from GTTGGGAA to AGCCGGGC, the “PBM E-score” value falls from 0.00512 to -0.11.

Going from GGGATATA to ACTGGTCC, the “PBM E-score” value rises from -0.143 to -0.00456.

Compared with CGTAGGAG, ATGTTTAC is higher in “PBM E-score” value: 0.0561 for the first, 0.113 for the second.

Going from CACGTCAG to ATAACTAA, the “PBM E-score” value rises from -0.2 to -0.0258.

First: AAACCTTG
Second: GGAGGTGA
The “PBM E-score” value of the first is lower: -0.307 for the first, -0.0745 for the second.

Compared with TCCATCAA, GATGCTTA is lower in “PBM E-score” value: 0.0348 for the first, -0.175 for the second.

Going from AGTCAACC to GGCATTAA, the “PBM E-score” value rises from -0.0824 to 0.0453.

Going from GGCTGCAC to AAGTATCT, the “PBM E-score” value rises from -0.163 to 0.0197.

First: GCGCAGAA
Second: AGAATGTG
The “PBM E-score” value of the first is lower: -0.0347 for the first, -0.031 for the second.

Compared with CCTGCCCG, GTGAGATA is higher in “PBM E-score” value: -0.19 for the first, -0.0685 for the second.

Compared with CACGCCAG, AGACTAAA is lower in “PBM E-score” value: 0.0176 for the first, -0.131 for the second.

Compared with CTTTACCA, CCGTGCCG is higher in “PBM E-score” value: -0.226 for the first, 0.203 for the second.

Compared with CCACGAAG, ATCCGAGC is higher in “PBM E-score” value: 0.0223 for the first, 0.248 for the second.

First: CGTACAAA
Second: ACTATCTA
The “PBM E-score” value of the first is higher: 0.412 for the first, 0.1 for the second.

Going from ATTCCGTG to CAGAAGAG, the “PBM E-score” value falls from -0.0624 to -0.143.

Compared with CCGTCGCG, GAGAAGAC is lower in “PBM E-score” value: 0.229 for the first, -0.0299 for the second.

First: AGGAAGAT
Second: AAATTTGT
The “PBM E-score” value of the first is lower: -0.123 for the first, 0.14 for the second.

First: GGTGTTTA
Second: GTTCGGGA
The “PBM E-score” value of the first is lower: -0.0272 for the first, 0.0627 for the second.

Going from CCGAGAGG to GAGCAAGA, the “PBM E-score” value falls from 0.0023 to -0.0825.

First: CAGCCTCG
Second: AAATCTAG
The “PBM E-score” value of the first is higher: 0.0801 for the first, -0.139 for the second.

Compared with ATGCCAAC, CAACGATA is higher in “PBM E-score” value: 0.0326 for the first, 0.263 for the second.

First: AGGAGTCG
Second: GCGACTGA
The “PBM E-score” value of the first is higher: -0.0364 for the first, -0.123 for the second.

Going from GTGTTAGA to CAGCACAG, the “PBM E-score” value falls from -0.0145 to -0.186.

Going from AGATCCGC to GCTGGCAA, the “PBM E-score” value falls from 0.0114 to -0.124.

Compared with TCAGGCGA, ATTAGTGC is higher in “PBM E-score” value: -0.194 for the first, 0.145 for the second.

First: GAACAATA
Second: AATAGGGA
The “PBM E-score” value of the first is higher: 0.183 for the first, -0.103 for the second.

Going from CACAGCGG to CTCACGCA, the “PBM E-score” value rises from -0.103 to 0.0186.

Going from CCTGGATC to ATCTTCTC, the “PBM E-score” value rises from -0.323 to -0.0584.

Compared with CTGCGCAG, CCATGCCC is lower in “PBM E-score” value: 0.0545 for the first, -0.265 for the second.

Going from ACTTGTTA to ACCCGCAA, the “PBM E-score” value rises from -0.185 to -0.158.

Going from CGAACCTA to ATTATAAC, the “PBM E-score” value falls from 0.00754 to -0.0721.

Going from CTGGGCCA to AGTGGCAC, the “PBM E-score” value rises from -0.357 to -0.164.

Compared with CGGTAACC, ACCGCTCC is higher in “PBM E-score” value: 0.091 for the first, 0.166 for the second.

First: AACAGTCA
Second: ACAGTCAT
The “PBM E-score” value of the first is lower: -0.192 for the first, -0.181 for the second.

Compared with ATGAAGAG, GTTCAAAC is higher in “PBM E-score” value: -0.104 for the first, 0.122 for the second.

Going from ATGACTCA to CTTCGAAA, the “PBM E-score” value rises from -0.0714 to 0.0207.

First: AAGTGAGG
Second: CAAGAATA
The “PBM E-score” value of the first is lower: -0.0564 for the first, -0.0556 for the second.

Going from ATCTACGC to TGGTAGAA, the “PBM E-score” value falls from 0.146 to -0.203.

First: TAAAAGAA
Second: CAGGCGGG
The “PBM E-score” value of the first is higher: 0.0634 for the first, -0.161 for the second.

First: CCCTACCG
Second: CATACTGC
The “PBM E-score” value of the first is lower: -0.162 for the first, 0.00327 for the second.

Going from CTTCGATC to TGCACACA, the “PBM E-score” value falls from 0.0857 to 0.0025.

First: CATGGCCG
Second: CACAACGG
The “PBM E-score” value of the first is lower: -0.123 for the first, -0.0014 for the second.

Compared with ATGGAAGG, GATCCGTA is higher in “PBM E-score” value: -0.299 for the first, 0.284 for the second.

Compared with CCTTGAGC, GAACCTGC is higher in “PBM E-score” value: -0.247 for the first, 0.102 for the second.

First: AAGCCGTC
Second: ACTGTCAT
The “PBM E-score” value of the first is lower: -0.0956 for the first, -0.073 for the second.

Going from AGATTTAC to GGAGAGAA, the “PBM E-score” value falls from -0.0302 to -0.148.

Compared with AAACAGGC, AAGAACAA is higher in “PBM E-score” value: -0.33 for the first, -0.0038 for the second.

Going from ATGGTACC to ATGGTCTG, the “PBM E-score” value rises from -0.225 to -0.0872.

First: CATTCGAA
Second: ATTCGTTG
The “PBM E-score” value of the first is lower: 0.113 for the first, 0.277 for the second.

Compared with GATGGGAC, GATGTAAC is lower in “PBM E-score” value: 0.00494 for the first, -0.0826 for the second.

First: AAACGGGC
Second: TCACTCAA
The “PBM E-score” value of the first is higher: 0.32 for the first, -0.219 for the second.

Going from GCTTACCC to AAGTATGC, the “PBM E-score” value rises from -0.0492 to -0.0374.

First: ATATTTCG
Second: GCTTAATA
The “PBM E-score” value of the first is higher: 0.267 for the first, 0.0328 for the second.

Compared with ATGCCGTC, AAAGCTCC is lower in “PBM E-score” value: 0.0463 for the first, -0.253 for the second.

Compared with AACACTCC, CTCCGACC is higher in “PBM E-score” value: -0.116 for the first, -0.0576 for the second.

Compared with AACGGGTG, CCCCGGCG is lower in “PBM E-score” value: 0.245 for the first, -0.141 for the second.

Going from ACCCGCTG to CAACTCCG, the “PBM E-score” value rises from -0.25 to -0.108.

First: AGCTAAGC
Second: AACGTAGA
The “PBM E-score” value of the first is lower: -0.0756 for the first, 0.134 for the second.

Compared with CTCTTGCC, ATCCGCAA is higher in “PBM E-score” value: -0.206 for the first, 0.0725 for the second.

Compared with CCTGCCAC, TCCGACAA is higher in “PBM E-score” value: -0.332 for the first, 0.121 for the second.

Going from CTTTTCGC to TCAAAACA, the “PBM E-score” value falls from 0.125 to -0.0331.

First: ATGCTCTA
Second: AATTTGTC
The “PBM E-score” value of the first is lower: -0.131 for the first, -0.0119 for the second.

Compared with CGGGTGAG, TATAAGAA is higher in “PBM E-score” value: -0.18 for the first, -0.0447 for the second.

Going from GAATGAAA to CTTATAAG, the “PBM E-score” value falls from 0.0272 to -0.0404.

First: CGGTGTCA
Second: ACTAGATG
The “PBM E-score” value of the first is lower: -0.0844 for the first, -0.0195 for the second.

Going from CCTTGTAG to ATTCGGAG, the “PBM E-score” value rises from -0.188 to -0.00698.

Compared with GGGCCCGA, CATAATGA is lower in “PBM E-score” value: -0.0195 for the first, -0.119 for the second.

Compared with GAAGTCAC, ATTGTGCA is higher in “PBM E-score” value: -0.252 for the first, -0.11 for the second.

Compared with CTCTCAAG, CTCCCCCC is lower in “PBM E-score” value: -0.153 for the first, -0.232 for the second.

First: TATTTACA
Second: ATCGACTG
The “PBM E-score” value of the first is lower: -0.0168 for the first, 0.076 for the second.

Going from AGCTCTTC to CAGCAACA, the “PBM E-score” value falls from 0.013 to -0.0467.

Compared with ATCAATCG, CCGGGCAC is lower in “PBM E-score” value: 0.0988 for the first, -0.0464 for the second.

Compared with AGGCACCC, CGATGGTC is higher in “PBM E-score” value: -0.308 for the first, -0.0239 for the second.

Going from AGGTGATA to AGCTTAGA, the “PBM E-score” value rises from -0.177 to -0.118.

First: CGTCAACA
Second: CAAGAGTG
The “PBM E-score” value of the first is lower: -0.18 for the first, -0.109 for the second.

Going from AGCTTACT to TACGAAGA, the “PBM E-score” value rises from -0.211 to 0.444.

Compared with AAGGCAGC, ACATATTG is higher in “PBM E-score” value: -0.24 for the first, -0.0107 for the second.

First: CACCCGGG
Second: CCAGAAAG
The “PBM E-score” value of the first is lower: -0.134 for the first, -0.00612 for the second.

First: CGGGAGCC
Second: CCTGTCCG
The “PBM E-score” value of the first is higher: 0.00532 for the first, -0.00504 for the second.

Compared with CATATGCA, CCTGCTTC is lower in “PBM E-score” value: 0.148 for the first, -0.126 for the second.

First: GTGCAAAC
Second: GGAAGGCC
The “PBM E-score” value of the first is higher: 0.133 for the first, -0.21 for the second.

First: ACCCAAAG
Second: GTGTAGCA
The “PBM E-score” value of the first is lower: -0.263 for the first, -0.251 for the second.

Compared with GCAACTGC, CCAGAGAA is lower in “PBM E-score” value: 0.126 for the first, 0.0432 for the second.
